Test results reported in the supplement of paper PMC11417369.
± gives the standard deviation of the averaged measurements. The list shows a part of the results.

What follows are sequences tested on PfAP2-G AP2 domain (GST-tagged) (assay: gcPBM binding intensity (ln(normalized median fluorescence intensity)); higher = stronger DNA binding).
Method in brief: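 GST-tagged P. falciparum DNA-binding domains, expressed in E. coli (about 25 μg on average), were applied for 1 h to an Agilent 4 × 180k array of primer-extended double-stranded 36-bp intergenic genomic probes plus negative controls. The binding buffer was 1× PBS with 1% milk, 0.2 mg/ml BSA, 0.5% salmon testes DNA and 0.03% Triton X-100. Bound protein was detected with Alexa488 anti-GST antibody and scanned at 488 nm. Binding intensity is the highest Masliner-normalised natural-log median intensity across replicate spots of either probe orientation.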
In the case of “AATGTGCTCGCTATTACACACTCATTGGGATAAACT [CACACA_site7043]”, the “gcPBM binding intensity (ln)” value is reported as 10.3 ± 0.23. For “TATATATATATATATTGTACATTTACCAAATTGTGT [XGTACX_site5791]”, the “gcPBM binding intensity (ln)” value was 10.9 ± 0.68. For “TAATATATCAAATGAAGTACTCACATATACATAATA [XGTACX_site6051]”, the “gcPBM binding intensity (ln)” value was 11.4 ± 0.7. “GGTATATATTTATAATGTACATATTCATATATATAA [XGTACX_site3291]” was tested, and the “gcPBM binding intensity (ln)” value was 11 ± 0.57. In the case of “TTTTTTAAATTATGTAGTACGATTCATTTTTTATAA [XGTACX_site1101]”, the “gcPBM binding intensity (ln)” value is reported as 11 ± 0.76. “AAAGTAAAAAATCATAGTACACATTTAAATATATAT [XGTACX_site2323]” was tested, and the “gcPBM binding intensity (ln)” value was 11.1 ± 0.71. For “ATATATTACGACTTCTGTACATAATATATAAAAGAA [XGTACX_site2353]”, the “gcPBM binding intensity (ln)” value was 11 ± 0.72. In the case of “TTTTTTTTTTTTTTTTTTTTTTTGTCTTATTTTTTT [GTGCAC_negctrl_site338]”, the “gcPBM binding intensity (ln)” value is reported as 9.69 ± 0.44. In the case of “AAGATTTTCCTTGATAGTACACTTATGAAAATTTGT [XGTACX_site3047]”, the “gcPBM binding intensity (ln)” value is reported as 11.2 ± 0.75. “AATATCTTAGTGGATACACACATATAAATGTGGATT [CACACA_site485]” was tested, and the “gcPBM binding intensity (ln)” value was 10.2 ± 0.17. With “AATATATTTAATCATACACACATTTATGTACCTATA [CACACA_site1718]” the “gcPBM binding intensity (ln)” value was 11.2 ± 0.84. With “TCGCCCTACAATTTGTTTATATATTAAATAAAATTT [CACACA_negctrl_site883]” the “gcPBM binding intensity (ln)” value was 10.1 ± 0.17. With “TGAAATTCCATAAAATGTACATATTAGTTTAATTCA [XGTACX_site4031]” the “gcPBM binding intensity (ln)” value was 11 ± 0.6. “ATGTTCTTTAAAACCACACACCCCCCAACCCCCCTC [CACACA_site2373]” was tested, and the “gcPBM binding intensity (ln)” value was 11.7 ± 1. With “GTCTATTATTTTTGAAGTACAAAAATTTTAGTTAAA [XGTACX_site4708]” the “gcPBM binding intensity (ln)” value was 11.3 ± 0.9. CATCATCTTTTAAAGGTGCATAATAATATTGTTAAT was tested, and the “gcPBM binding intensity (ln)” value was 10.1 ± 0.17. For “GGTATACACAGACATGCATGTAATTATATATAGGGA [TGCATGCA_site83]”, the “gcPBM binding intensity (ln)” value was 9.88 ± 0.16. With “AAAAATAAATATATATGTACACATATGTATACAATA [XGTACX_site4692]” the “gcPBM binding intensity (ln)” value was 11.6 ± 0.97. “GAAATAAATATAATATATATATATATATATATATGT [TGCATGCA_negctrl_site216]” was tested, and the “gcPBM binding intensity (ln)” value was 10.4 ± 0.42. For TTACAACATGAAAATGTGCACATATATATATATATA, the “gcPBM binding intensity (ln)” value was 10.3 ± 0.33. With “ATATTTATAAATTGCACACAAATAATAACATTCTAT [CACACA_site2357]” the “gcPBM binding intensity (ln)” value was 9.945 ± 0.007. For “TATTATTATTATGGTAGTACATGTAGGTTATTAAAA [XGTACX_site5742]”, the “gcPBM binding intensity (ln)” value was 11.6 ± 1.2. In the case of “AATTGGGAAGGACATGCATGAGAAATTAATATTGCA [TGCATGCA_site424]”, the “gcPBM binding intensity (ln)” value is reported as 10.6 ± 0.61. For “ATATTTTGTTTTTGTTCTTTTTTTTTCTTTTTTTTT [CACACA_negctrl_site1342]”, the “gcPBM binding intensity (ln)” value was 9.81 ± 0.057. In the case of “AACATACACATATACACACACACATATATACCTATA [CACACA_site6643]”, the “gcPBM binding intensity (ln)” value is reported as 10.2 ± 0.17. With “AAGAAAAAAAAAATTACACACTGCGGACATACACAA [CACACA_site4838]” the “gcPBM binding intensity (ln)” value was 11.1 ± 0.64. “TCAATTTTACTTGTTTGTACATAAAATAATAAGGTT [XGTACX_site3732]” was tested, and the “gcPBM binding intensity (ln)” value was 11 ± 0.57. In the case of “ATATCTACTATACAACTGAGTGTAGAAAAATTAAAC [CACACA_negctrl_site1211]”, the “gcPBM binding intensity (ln)” value is reported as 10.13 ± 0.071. In the case of “ACTTTGCTCTACAATGCATGCTCATTTAACAAGGCA [TGCATGCA_site676]”, the “gcPBM binding intensity (ln)” value is reported as 9.945 ± 0.021. With “TATATTAAATGAAACAAACACACATAGCCTTTAAAT [CACACA_site1559]” the “gcPBM binding intensity (ln)” value was 9.945 ± 0.049. With “AAAAAAAAAAAAAAATGTACATATATATAAATATAT [XGTACX_site6768]” the “gcPBM binding intensity (ln)” value was 11.1 ± 0.72. For “CTATTTTATATGTGCACACATATACTCAGACAAATA [CACACA_site4761]”, the “gcPBM binding intensity (ln)” value was 10.6 ± 0.45. For “ACCTATATACTAAATGCACACTTATATATTTATATA [CACACA_site5371]”, the “gcPBM binding intensity (ln)” value was 10.11 ± 0.049. “ATATATATATATATATGTACATATTTTTATTTATAC [XGTACX_site2858]” was tested, and the “gcPBM binding intensity (ln)” value was 11.3 ± 0.74. “TATGTAATGTTTACAACACACAAATTATAAATACAA [CACACA_site1771]” was tested, and the “gcPBM binding intensity (ln)” value was 9.86 ± 0.13. For “TATTTATATGTATATACATGCACATATATATGAAAC [TGCATGCA_site1005]”, the “gcPBM binding intensity (ln)” value was 10.1 ± 0.18. “CATATTACATTAAATTGTACATATATATATATATAT [XGTACX_site3295]” was tested, and the “gcPBM binding intensity (ln)” value was 10.9 ± 0.55. In the case of “CGGATGAATATATATGCACACATCTTTTGTAAAAAT [CACACA_site3190]”, the “gcPBM binding intensity (ln)” value is reported as 9.985 ± 0.078. For “TAATTCGCATTTTATACACACATTCGAACCTTTTTT [CACACA_site7549]”, the “gcPBM binding intensity (ln)” value was 9.99 ± 0.17. In the case of “AAATTAATACATTATTGTACTTTTCATGTGCAGAAA [XGTACX_site8284]”, the “gcPBM binding intensity (ln)” value is reported as 11.4 ± 0.91. “TCAATAAATGAATATGCATGCACGCTCTTTAGAGAT [TGCATGCA_site553]” was tested, and the “gcPBM binding intensity (ln)” value was 10 ± 0.028. For “GAGAAAAAAAAAAAAAAACACACGGTACATTCAAAG [CACACA_site1767]”, the “gcPBM binding intensity (ln)” value was 10.35 ± 0.049. In the case of “TGTATAAATATATGCACACATATATATATTTATATA [CACACA_site3473]”, the “gcPBM binding intensity (ln)” value is reported as 9.81 ± 0.14. With “TAATAATCAAGTTAACGTACAAAATCATCTATAGAA [XGTACX_site5921]” the “gcPBM binding intensity (ln)” value was 10.9 ± 0.53. “GTAGCCTTTCTTTATAAAGGCAAACAAACAAAAAAT [CACACA_negctrl_site1491]” was tested, and the “gcPBM binding intensity (ln)” value was 10.2 ± 0.34. In the case of “ATATGAGAGAATAAAACACACAAAAAAAAAAAAAAA [CACACA_site2865]”, the “gcPBM binding intensity (ln)” value is reported as 9.69 ± 0.33. For “AAAAAAAAAAGTTCTACACACACAAAAAAATATTTT [CACACA_site8725]”, the “gcPBM binding intensity (ln)” value was 10.02 ± 0.042. For “AAAAATTAAAAGAAAATACACACCTGTGGGTGCTTA [CACACA_site1988]”, the “gcPBM binding intensity (ln)” value was 9.54 ± 0.26. With TTATATAGGCAGATGGTGCATCTATTTATAAGCAAC the “gcPBM binding intensity (ln)” value was 9.95 ± 0.28. In the case of “TGTATGTATTTTCAATGTACATAAAAAAAAAAAAAA [XGTACX_site4397]”, the “gcPBM binding intensity (ln)” value is reported as 10.9 ± 0.92. With TATTTTTTTTGTTAGGTGCATTTACATTTATTTTTA the “gcPBM binding intensity (ln)” value was 10.1 ± 0.22. With “TGTTTATATAATATTCTACACACCAACAACAAACAT [CACACA_site8087]” the “gcPBM binding intensity (ln)” value was 10.5 ± 0.42. In the case of “TATAATATAATTAAAAGTACTTAAAAAAGAATGAAA [XGTACX_site1157]”, the “gcPBM binding intensity (ln)” value is reported as 11.4 ± 0.79. For “CCGTATTCAAAAAGGAGTACACAATTATATGTTATA [XGTACX_site641]”, the “gcPBM binding intensity (ln)” value was 11.7 ± 1. For “TTTTTAAAACATATCACACATATATATATATATATA [CACACA_site5991]”, the “gcPBM binding intensity (ln)” value was 10.1 ± 0.5. For “TATTTTTATAAAAATCGTACAAGTGATCCAATTTTT [XGTACX_site4402]”, the “gcPBM binding intensity (ln)” value was 11.3 ± 0.85. With “TTTATATAATTTTGTGGTACTTATGTGTGTATATTA [XGTACX_site706]” the “gcPBM binding intensity (ln)” value was 11.2 ± 0.73.
